The target of assay [1] is T1, human GluN1/GluN2A NMDARs (Homo sapiens, UniProt Q05586+Q12879).
T1 construct: host or cells: HEK293
The settings on record: GluN1/GluN2A cell line, saturating glycine 100 μM; determined previously for each cell line; cited from earlier work.

Assay [2] deals with T2, human GluN1/GluN2B NMDARs (Homo sapiens, UniProt Q05586+Q13224).
T2 construct: host or cells: HEK293
The settings on record: GluN1/GluN2B cell line, saturating glycine 100 μM; determined previously for each cell line; cited from earlier work.

The subject of a further assay is NMDARs. More on the design: method as in PMID 33033186. The settings on record: electrophysiology; cited from earlier work.
In another assay the test system is neuronal cell culture. Further details: method as in PMID 33033186. The settings on record: cited from earlier work.
Assay [3] deals with mouse models of stroke and retinal degeneration. Further details: method as in PMID 33033186. As to conditions: cited from earlier work.
The target of assay [4] is T1, human GluN1/GluN2A NMDARs. The assay can be described thus: Automated patch clamp, NMDARs in HEK293 cells. The assay is classed as cell-based. As to conditions: +40 mV; glycine 100 μM plus NMDA 90 μM; stable HEK293. How it is done:
(§1) Recombinant human GluN1 (UniProt ID Q05586) with GluN2A (Uniprot Q12879) or GluN2B (Uniprot Q13224) NMDARs were stably expressed under tetracycline control in HEK293 cell lines (Charles River). Voltage-clamp recordings were performed using the Sophion Qube platform which performs 384 parallel and independent patch-clamp recordings with digitally controlled microfluidics (Tecan D300) on a disposable single-hole or multi-hole QChip. The following extracellular solution was used: 145 mM NaCl, 4 mM KCl, 10 mM HEPES, 10 mM glucose, 2 mM CaCl2, 1 mM MgCl2; pH 7.4. The following intracellular solution was used: 70 mM CsF, 70 mM CsCl, 10 mM HEPES, 1 mM EGTA; 316 mOsm, pH 7.2. For analysis of channel activation kinetics, cells were held at −70 mV and stepped to −20 mV before the application of glycine (100 μM) plus NMDA (90 μM for GluN1/GluN2A and 40 μM for GluN1/GluN2B). […] Quality control thresholds were set according to the seal resistance (minimum […]), and failed experiments were excluded from the analysis. For analysis of steady state agonist IC50 values, voltage steps to +40 mV were performed in the presence and absence of agonists before and after compound application in the same cell. IC50 data were generated from agonist responses as described before.[20]
(§2) Figure S1. Analysis of IC50 values of FP802 for NMDARs in HEK293 cells. […] The effects of FP802 on NMDARs were evaluated at +40 […]
On the technique in general: In patch-clamp work, channel activity is measured electrically.

Assay [5] has as its target T2, human GluN1/GluN2B NMDARs. Description: Automated patch clamp, NMDARs in HEK293 cells. The assay is classed as cell-based. As to conditions: +40 mV; glycine 100 μM plus NMDA 40 μM; stable HEK293. How it is done: as §1, §2

T2 sequence (Q13224 27-1484, other chains not shown): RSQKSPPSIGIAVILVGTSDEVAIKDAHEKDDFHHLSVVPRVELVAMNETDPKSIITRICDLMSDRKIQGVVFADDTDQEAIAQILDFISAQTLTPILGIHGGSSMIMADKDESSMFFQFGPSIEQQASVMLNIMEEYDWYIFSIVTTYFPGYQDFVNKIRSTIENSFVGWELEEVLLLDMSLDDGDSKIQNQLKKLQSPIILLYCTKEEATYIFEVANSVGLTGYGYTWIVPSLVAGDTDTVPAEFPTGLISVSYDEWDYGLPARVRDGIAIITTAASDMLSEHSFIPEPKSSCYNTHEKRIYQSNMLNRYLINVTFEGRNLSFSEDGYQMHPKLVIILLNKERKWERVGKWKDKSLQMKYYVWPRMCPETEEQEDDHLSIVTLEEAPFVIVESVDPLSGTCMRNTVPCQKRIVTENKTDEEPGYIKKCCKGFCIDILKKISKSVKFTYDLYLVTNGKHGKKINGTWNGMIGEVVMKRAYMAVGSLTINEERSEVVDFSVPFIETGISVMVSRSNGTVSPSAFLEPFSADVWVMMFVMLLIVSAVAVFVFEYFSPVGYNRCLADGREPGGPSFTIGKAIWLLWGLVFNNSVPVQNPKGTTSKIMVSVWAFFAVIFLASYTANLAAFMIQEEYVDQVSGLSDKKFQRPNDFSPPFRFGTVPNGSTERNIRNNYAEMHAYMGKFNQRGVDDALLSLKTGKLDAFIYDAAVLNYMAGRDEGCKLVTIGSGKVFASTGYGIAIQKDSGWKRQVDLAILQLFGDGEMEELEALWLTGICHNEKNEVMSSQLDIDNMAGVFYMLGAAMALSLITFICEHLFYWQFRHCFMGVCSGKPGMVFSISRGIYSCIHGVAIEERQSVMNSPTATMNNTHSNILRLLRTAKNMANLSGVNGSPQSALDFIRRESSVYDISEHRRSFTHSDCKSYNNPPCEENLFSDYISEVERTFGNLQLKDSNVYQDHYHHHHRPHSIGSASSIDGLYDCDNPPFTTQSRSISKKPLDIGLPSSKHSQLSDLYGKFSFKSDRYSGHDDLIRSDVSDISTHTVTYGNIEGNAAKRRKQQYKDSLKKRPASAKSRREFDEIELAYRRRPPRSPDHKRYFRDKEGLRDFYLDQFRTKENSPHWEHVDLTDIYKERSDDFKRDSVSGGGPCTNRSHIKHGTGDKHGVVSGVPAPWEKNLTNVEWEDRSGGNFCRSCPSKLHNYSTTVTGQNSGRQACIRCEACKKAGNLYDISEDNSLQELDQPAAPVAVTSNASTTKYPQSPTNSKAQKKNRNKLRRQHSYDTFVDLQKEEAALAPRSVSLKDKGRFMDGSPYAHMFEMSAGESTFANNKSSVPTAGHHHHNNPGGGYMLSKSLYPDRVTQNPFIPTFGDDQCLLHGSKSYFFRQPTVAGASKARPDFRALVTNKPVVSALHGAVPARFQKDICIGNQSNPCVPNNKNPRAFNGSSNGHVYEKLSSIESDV
T1 sequence (Q12879 23-1464, other chains not shown): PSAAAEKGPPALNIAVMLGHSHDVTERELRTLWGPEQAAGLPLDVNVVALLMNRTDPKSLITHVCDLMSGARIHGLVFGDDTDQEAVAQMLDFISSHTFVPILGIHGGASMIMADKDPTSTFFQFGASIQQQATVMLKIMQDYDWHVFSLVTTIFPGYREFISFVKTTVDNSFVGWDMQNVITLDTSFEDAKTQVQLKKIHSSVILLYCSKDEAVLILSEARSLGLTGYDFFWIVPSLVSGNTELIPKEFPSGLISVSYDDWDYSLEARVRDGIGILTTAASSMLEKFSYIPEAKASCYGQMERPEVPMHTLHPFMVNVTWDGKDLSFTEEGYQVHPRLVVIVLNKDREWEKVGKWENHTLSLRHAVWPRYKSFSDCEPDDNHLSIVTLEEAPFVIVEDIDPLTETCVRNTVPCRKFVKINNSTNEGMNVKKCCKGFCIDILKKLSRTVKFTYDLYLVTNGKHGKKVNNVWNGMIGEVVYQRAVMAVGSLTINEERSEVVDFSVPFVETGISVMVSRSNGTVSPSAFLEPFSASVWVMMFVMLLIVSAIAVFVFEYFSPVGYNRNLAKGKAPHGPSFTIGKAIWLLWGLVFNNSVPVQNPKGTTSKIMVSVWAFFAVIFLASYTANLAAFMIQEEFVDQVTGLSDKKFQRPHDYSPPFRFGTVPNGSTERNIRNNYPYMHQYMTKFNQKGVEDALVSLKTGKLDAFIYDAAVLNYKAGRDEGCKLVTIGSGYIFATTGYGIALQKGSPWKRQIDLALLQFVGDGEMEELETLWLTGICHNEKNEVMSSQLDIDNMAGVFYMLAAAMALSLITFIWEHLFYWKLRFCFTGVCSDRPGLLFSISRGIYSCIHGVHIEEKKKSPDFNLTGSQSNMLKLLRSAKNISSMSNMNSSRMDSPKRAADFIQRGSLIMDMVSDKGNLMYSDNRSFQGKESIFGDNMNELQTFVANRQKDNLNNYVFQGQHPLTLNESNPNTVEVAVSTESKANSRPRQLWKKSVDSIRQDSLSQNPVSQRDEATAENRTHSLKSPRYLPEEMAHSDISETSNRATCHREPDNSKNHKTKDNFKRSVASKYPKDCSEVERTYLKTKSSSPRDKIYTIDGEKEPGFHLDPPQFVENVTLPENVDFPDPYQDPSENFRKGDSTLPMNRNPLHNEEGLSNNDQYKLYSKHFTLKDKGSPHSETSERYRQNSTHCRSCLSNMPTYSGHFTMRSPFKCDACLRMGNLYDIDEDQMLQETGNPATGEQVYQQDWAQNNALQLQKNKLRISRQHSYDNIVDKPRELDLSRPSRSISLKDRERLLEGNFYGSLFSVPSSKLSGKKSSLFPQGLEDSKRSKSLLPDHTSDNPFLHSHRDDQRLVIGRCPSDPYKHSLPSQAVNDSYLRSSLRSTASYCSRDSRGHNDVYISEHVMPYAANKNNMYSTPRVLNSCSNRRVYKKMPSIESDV

On to `CN[C@H](CC(=O)O)C(=O)O` [NMDA], for which the “EC80 NMDA concentration for receptor activation” value is 90 µM in assay [1] and 40 µM in assay [2].

As for `CCN(CCN)Cc1cccc(Br)c1` [Compound 8], in the assay on NMDARs, the “block of NMDARs expressed heterologously in HEK293 cells” value was “did not block”. The “neuroprotection in neuronal cell culture” value with neuronal cell culture was “potent neuroprotectant”. The “neuroprotection in vivo in mouse models of stroke and retinal degeneration” value in assay [3] was “potent neuroprotectant”.

As for `N[C@H](CCCP(=O)(O)O)C(=O)O` [D-APV, reference compound], the IC50 in assay [4] turned out to be 4.5 µM; in assay [5] it was 4.3 µM.

One may read the IC50 as the concentration at which inhibition is half-maximal.

These data come from PMC10897598, “TwinF interface inhibitor FP802 stops loss of motor neurons and mitigates disease progression in a mouse model of ALS” (Cell Reports Medicine, 2024).
